These results are taken from article PMC4336329 (PLoS ONE, 2015).

The campaign covered roughly 310,000 compounds. About 2,200 (0.71%) showed an effect of 50% or more. The effect is printed as a negative number. This is one part of the list.

Chain of human ether-à-go-go-related gene (hERG) potassium channel (Q12809 whole entry, looked up): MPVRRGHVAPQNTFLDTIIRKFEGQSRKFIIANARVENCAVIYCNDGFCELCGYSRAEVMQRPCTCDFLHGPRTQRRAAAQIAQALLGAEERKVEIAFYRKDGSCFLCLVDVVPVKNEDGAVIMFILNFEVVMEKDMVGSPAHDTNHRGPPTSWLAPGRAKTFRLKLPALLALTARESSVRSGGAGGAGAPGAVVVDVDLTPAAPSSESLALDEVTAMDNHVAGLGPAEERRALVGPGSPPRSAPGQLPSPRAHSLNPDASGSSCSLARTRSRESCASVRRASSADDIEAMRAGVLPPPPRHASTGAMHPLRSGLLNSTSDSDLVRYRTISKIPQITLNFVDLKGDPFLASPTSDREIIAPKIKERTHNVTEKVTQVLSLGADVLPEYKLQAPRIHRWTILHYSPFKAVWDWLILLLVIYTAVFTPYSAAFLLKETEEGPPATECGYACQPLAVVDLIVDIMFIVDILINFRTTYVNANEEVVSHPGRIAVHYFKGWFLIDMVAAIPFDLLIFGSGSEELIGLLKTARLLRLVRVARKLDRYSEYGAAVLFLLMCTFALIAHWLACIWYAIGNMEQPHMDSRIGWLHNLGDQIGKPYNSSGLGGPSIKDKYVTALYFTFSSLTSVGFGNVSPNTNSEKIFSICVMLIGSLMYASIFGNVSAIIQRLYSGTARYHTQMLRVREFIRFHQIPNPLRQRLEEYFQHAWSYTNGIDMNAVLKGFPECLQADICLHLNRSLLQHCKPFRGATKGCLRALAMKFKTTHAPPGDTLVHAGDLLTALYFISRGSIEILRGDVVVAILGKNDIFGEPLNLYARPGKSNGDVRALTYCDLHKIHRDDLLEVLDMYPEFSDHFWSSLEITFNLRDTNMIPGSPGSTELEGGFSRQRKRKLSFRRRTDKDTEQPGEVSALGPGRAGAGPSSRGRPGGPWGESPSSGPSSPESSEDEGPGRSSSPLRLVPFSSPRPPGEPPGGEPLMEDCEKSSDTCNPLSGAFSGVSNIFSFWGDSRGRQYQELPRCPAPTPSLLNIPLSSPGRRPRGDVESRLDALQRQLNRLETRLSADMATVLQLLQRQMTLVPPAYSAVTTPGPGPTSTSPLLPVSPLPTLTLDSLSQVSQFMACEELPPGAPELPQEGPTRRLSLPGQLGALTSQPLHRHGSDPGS

This assay addresses human ether-à-go-go-related gene (hERG) potassium channel (human, UniProt Q12809). The assay is described as follows: primary screen, population patch clamp on CHO cells stably expressing hERG.
As to `CCOCc1c(C(=O)NC2=Nc3ccccc3NC(CC)=C2C(=O)OCC)oc2ccccc12`, the “hERG current change (%, negative = inhibition) at 1uM” value amounted to 11.2%. The value for `CC(C)COc1ccc(C(=O)NC(CC(C)C)C(=O)O)cc1` (centres unmarked) was 10.2%. With `CCOC(=O)C1=CC[C@H]2c3c(c4ccccc4n3C)C(=O)C1N2C` the figure was 15.3%. With `COc1ccccc1N1CCN(Cc2cc(=O)c(OCC(=O)Nc3ccccc3)co2)CC1` the figure was 13.4%; with `O=C(CN1c2cccc3cccc(c23)S1(=O)=O)NCc1ccc(Cl)cc1`, 0.845%.

Turning to `O=C(c1ccc(Cl)cc1)C1CCN(C(=O)NC2CCCCC2)CC1`, the “hERG current change (%, negative = inhibition) at 1uM” value worked out at 0.184%. With `CC(C)c1ccc(NC(=S)N2CCCC(c3ccc(F)cc3)=N2)cc1` the figure was 11%.

On to `Cc1cc([N+](=O)[O-])cc2c1NC(c1ccccn1)C1CC=CC21` (centres unmarked), for which the “hERG current change (%, negative = inhibition) at 1uM” value came to 8.71%. With `COc1ccc(NC(=O)C(NC(=O)c2ccc(=O)[nH]c2)c2ccc(C)cc2)cc1` (centres unmarked) the figure was 13.4%; with `O=C(NC(C(=O)c1ccccc1)n1cnccc1=O)c1ccccc1` (centres unmarked), 16.7%. Regarding `CC(=O)N1CCc2c(sc(NC(=O)Cc3ccc(F)cc3)c2C(N)=O)C1`, the “hERG current change (%, negative = inhibition) at 1uM” value is on record as 13.9%. Turning to `CCOc1ccc(C(=O)N2CCCC2)cc1`, the “hERG current change (%, negative = inhibition) at 1uM” value was found to be 10.9%. With `CC(Sc1n[nH]c(-c2cccs2)n1)C(=O)Nc1ccccc1F` (centres unmarked) the figure was 19.7%. The value for `O=C(CCCSc1nc2ccccc2[nH]1)NCc1ccc(Cl)cc1` was -8.79%; that for `O=C(O)CNc1ncccc1[N+](=O)[O-]` was -34.9%.

As for `CN(CC(=O)Nc1cccc(F)c1)C(=O)c1cn(-c2ccccc2)nc1-c1ccccc1`, the “hERG current change (%, negative = inhibition) at 1uM” value came out at 6.79%. Turning to `CC(=O)c1c(C)[nH]c(C(=O)CSc2nc3ccccc3c(=O)n2CCCO)c1C`, the “hERG current change (%, negative = inhibition) at 1uM” value is reported as 5.85%.

On to `Cc1ccc(OCC(=O)NCCNC(=O)c2cccnc2)cc1C`, for which the “hERG current change (%, negative = inhibition) at 1uM” value came to 20%. With `O=C(Cn1c(=O)n(Cc2ccco2)c(=O)c2ccccc21)Nc1cccc(Cl)c1` the figure was 8.31%; with `CC(C)c1ccc(NC(=O)CNCC(c2ccccc2)N(C)C)cc1` (centres unmarked), 6.64%; with `COC(=O)c1ccccc1NC(=O)CSc1nncn1C`, 15.6%.

Regarding `COc1ccc(NCC(=O)n2c(C)c(C)c3ccccc32)cc1OC`, the “hERG current change (%, negative = inhibition) at 1uM” value was 14.3%. As to `COCCCNc1c2c(nc3nnnn13)CCCC2`, the “hERG current change (%, negative = inhibition) at 1uM” value was determined as 7.68%. On to `COC(=O)c1ccccc1NC(=O)CN1C(=O)NC2(CCCCCCC2)C1=O`, for which the “hERG current change (%, negative = inhibition) at 1uM” value is listed as 9.1%. The value for `CC[n+]1c(C)n(-c2ccccc2)c2ccc(C(=O)OC)cc21.[I-]` was 13.1%. Regarding `CC(C)Oc1ccc(CC2CC(=O)NC2=O)cc1` (centres unmarked), the “hERG current change (%, negative = inhibition) at 1uM” value turned out to be 13.9%. With `CC[N+](C)(CC)CCCOC(=O)C(O)(c1ccccc1)C1CCCCC1.[I-]` (centres unmarked) the figure was 10.4%. With `Cc1ccc(C(=O)Nc2nc(N)n(-c3ccccc3)n2)cc1` the figure was 12.1%. The value for `CCOc1cccc(C(=O)Nc2ccc3c(c2)OCCO3)c1` was 12.1%; that for `CN(C)C(=O)c1cn(N(C)c2ncc(C(F)(F)F)cc2Cl)c(=O)c2ccccc12` was 9.97%. As for `O=S(=O)(Nc1cc(Cl)ccc1-n1cncn1)c1ccc(F)cc1`, the “hERG current change (%, negative = inhibition) at 1uM” value is listed as 6.13%. For `O=C(CC(C(=O)O)c1ccc(Cl)cc1)c1ccc(Cl)c(Cl)c1` (centres unmarked), the “hERG current change (%, negative = inhibition) at 1uM” value stood at 13.2%. The value for `Cc1ccc(S(=O)(=O)N2CCCCC2)cc1NC(=O)c1c(-c2ccccc2)noc1C` was -0.916%. In the case of `Cc1ccccc1-n1nc(-c2cccnc2)cc1C(=O)NN`, the “hERG current change (%, negative = inhibition) at 1uM” value is reported as 13.8%. With `CCC(C)C(=O)Nc1nnc(SCC(=O)Nc2ccccc2F)s1` (centres unmarked) the figure was 11.3%. For `COc1ccc(CC2(CO)CCN(Cc3cccc(OC)c3OC)CC2)cc1`, the “hERG current change (%, negative = inhibition) at 1uM” value was -17.3%.

Take `Cc1ccc(Oc2cc(NC(=O)CCCn3nc(C)c([N+](=O)[O-])c3C)cc([N+](=O)[O-])c2)cc1`: the “hERG current change (%, negative = inhibition) at 1uM” value is on record as 6.59%. Turning to `COc1ccc(NC(=O)CCN2CCN(S(=O)(=O)c3ccc(C(C)C)cc3)CC2)cc1`, the “hERG current change (%, negative = inhibition) at 1uM” value is recorded as -4.55%. With `O=C1NC(=O)/C(=C\c2ccccc2Oc2ccc(F)c(F)c2)S1` the figure was 9.61%; with `N#CC1=C(Nc2ccc(Br)cc2)CCC1`, -15.3%. Consider `CCN(CC)c1ccc(C(=O)OCC(=O)Nc2ccccc2-c2ccccc2)cc1`, for which the “hERG current change (%, negative = inhibition) at 1uM” value was 17.3%. The value for `c1ccc(-c2nnc(SCc3nnc(-c4cccs4)o3)o2)cc1` was -7.09%; that for `CCC1CCCCN1CCCNC(=O)c1ccc2nc(N3CCC(C)CC3)sc2c1` (centres unmarked) was -1.56%. In the case of `COCCCNC(=O)CC(NS(=O)(=O)c1ccc(F)cc1)c1ccc(OC)cc1` (centres unmarked), the “hERG current change (%, negative = inhibition) at 1uM” value is reported as 3.35%.
